Reference: patent publication US5654451A, “Amino acids and peptides having modified C-terminals and modified N-terminals” (Magainin Pharmaceuticals Inc., priority 1995, dated 1997)
≈ marks a conversion by molar mass, not a printed value. Not every detail of the peptide structures is certain; ends, links or a residue may be inferred. For part of these data: At least one compound was matched to its structure with a doubt left.

Experiments:
Assay in all cases: Antimicrobial assay (MIC, microtiter broth dilution)
Assay type in all cases: cell-based
[1] = system: C. albicans; conditions: for MIC C. albicans 14053: strain 14053
Description: (§1) The procedure for the antimicrobial assay is based upon the guidelines of the National Committee for Clinical Laboratory Standards, Document M7-T2, Volume 8, No. 8, 1988.
(§2) 1-5×10^5 CFUs/ml of either S. aureus ATCC 25923, E. coli ATCC 25922, P. aeruginosa ATCC 27853, or C. albicans were added to the wells in full strength Mueller Hinton broth (BBL 11443) from a mid-log culture. The inoculum is standardized spectrophotometrically at 600 nm and is verified by colony counts. The plates are incubated for 16-20 hours at 37° C., and the minimal inhibitory concentrations (MIC) for the compounds are determined. Minimal inhibitory concentration is defined as the lowest concentration of amino acid or peptide which produces a clear well in the microtiter plate.

[2] = system: C. difficile; conditions: for MIC C. difficile P324: strain P324; for MIC C. difficile TTU614: strain TTU614
[3] = system: L. fermentum; conditions: strain 23271
[4] = system: B. fragilis; conditions: strain 25285
[5] = system: S. aureus; conditions: for MIC S. aureus 29213: strain 29213 (Tables II-V)
Description: as §1, §2

[6] = system: E. coli; conditions: for MIC E. coli 25922: strain 25922 (Tables II-V)
Description: as §1, §2

[7] = system: P. aeruginosa; conditions: for MIC P. aeruginosa 27853: strain 27853 (Tables II-V)
Description: as §1, §2

[8] = system: E. faecalis; conditions: for MIC E. faecalis 19290: strain 19290; for MIC E. faecalis 19052: strain 19052
[9] = system: T. mentagrophytes; conditions: strain 18748
[10] = system: S. epidermidis
[11] = system: P. gingivalis
[12] = system: S. marcescens
[13] = system: T. rubrum; conditions: strain 36262
[14] = system: P. mirabilis
[15] = system: E. faecium; conditions: strain 26143
[16] = system: M. canis; conditions: strain 11621
[17] = system: E. floccosum; conditions: strain 52062

SMILES: N=C(N)NCCC[C@H](NC(=O)[C@@H](N)CCC(=O)O)C(=O)N[C@@H](Cc1ccccc1)C(=O)NCCCCCCCCCCCCNC(=O)[C@H](Cc1ccccc1)NC(=O)[C@H](CCCNC(=N)N)NC(=O)[C@@H](N)CCC(=O)O [Compound 21, 1,12-[di-(glutamyl-arginyl-phenylalanyl)]diaminododecane]
- MIC C. albicans 14053 [1]: 64,128 μg/ml
- MIC C. difficile P324 [2]: 128 µg/mL (≈ 120 µM)
- MIC L. fermentum 23271 [3]: 64 µg/mL (≈ 60.1 µM)
- MIC B. fragilis 25285 [4]: 128 µg/mL (≈ 120 µM)

SMILES: N=C(N)NCCC[C@H](NC(=O)[C@@H](N)Cc1ccccc1)C(=O)NCCCCCCCCCCCCNC(=O)[C@H](CCCNC(=N)N)NC(=O)[C@@H](N)Cc1ccccc1 [Compound 22]
- MIC S. aureus 29213 [5]: 8 µg/mL (≈ 9.91 µM)
- MIC E. coli 25922 [6]: 128 µg/mL (≈ 159 µM)
- MIC C. albicans 14053 [1]: 32 µg/mL (≈ 39.6 µM)
- MIC P. aeruginosa 27853 [7]: 128 µg/mL (≈ 159 µM)
- MIC C. difficile P324 [2]: 8,16 μg/ml
- MIC C. difficile TTU614 [2]: 32 µg/mL (≈ 39.6 µM)
- MIC L. fermentum 23271 [3]: 2,4 μg/ml
- MIC B. fragilis 25285 [4]: 16,32 μg/ml

SMILES: C[C@H](N)C(=O)N[C@@H](CCCNC(=N)N)C(=O)N[C@@H](Cc1ccccc1)C(=O)NCCCCCCCCCCCCNC(=O)[C@H](Cc1ccccc1)NC(=O)[C@H](CCCNC(=N)N)NC(=O)[C@H](C)N [Compound 18, 1,12-[di(alanyl-arginyl-phenylalanyl)]diaminododecane]
- MIC S. aureus 29213 [5]: 16,32 μg/ml
- MIC E. coli 25922 [6]: 128 µg/mL (≈ 135 µM)
- MIC C. albicans 14053 [1]: 128 µg/mL (≈ 135 µM)
- MIC P. aeruginosa 27853 [7]: 256 µg/mL (≈ 270 µM)
- MIC C. difficile P324 [2]: 16,32 μg/ml
- MIC L. fermentum 23271 [3]: 16 µg/mL (≈ 16.9 µM)
- MIC B. fragilis 25285 [4]: 64 µg/mL (≈ 67.4 µM)

SMILES: N=C(N)NC(Cc1ccc(F)cc1)C(=O)NCCCCCCCCCCCCNC(=O)C(Cc1ccc(F)cc1)NC(=N)N (stereo not drawn) [Compound 11, 1,12-[bis-N-α-amidino-p-fluoro-phenylalanyl]diaminododecane]
- MIC S. aureus 29213 [5]: 0.5,8
- MIC E. faecalis 19290 [8]: 0.5,1

SMILES: N=C(N)NCCC[C@H](NC(=O)CCN)C(=O)N[C@@H](Cc1ccccc1)C(=O)NCCCCCCCCCCCCNC(=O)[C@H](Cc1ccccc1)NC(=O)[C@H](CCCNC(=N)N)NC(=O)CCN [Compound 12, 1,12-[di-B-alanyl-arginyl-phenylalanyl)diamino dodecane]
- MIC S. aureus ([5]; Table I, S. aureus ATCC 25923): 2 µg/mL (≈ 2.11 µM)
- MIC S. aureus 1093 ([5]; strain 1093): 4 µg/mL (≈ 4.21 µM)
- MIC S. aureus 1096 ([5]; strain 1096): 4,8 μg/ml
- MIC S. aureus 29213 [5]: 2,4 μg/ml
- MIC E. coli ([6]; Table I, E. coli ATCC 25922): 16 µg/mL (≈ 16.9 µM)
- MIC E. coli 25922 [6]: 16 µg/mL (≈ 16.9 µM)
- MIC C. albicans ([1]; Table I): 32 µg/mL (≈ 33.7 µM)
- MIC C. albicans 14053 [1]: 32 µg/mL (≈ 33.7 µM)
- MIC P aeruginosa ([7]; Table I, P. aeruginosa ATCC 27853): 16 µg/mL (≈ 16.9 µM)
- MIC P. aeruginosa 1133 ([7]; strain 1133): 128 µg/mL (≈ 135 µM)
- MIC P. aeruginosa 27853 [7]: 16,32 μg/ml
- MIC P. aeruginosa El Salvador ([7]; strain El Salvador): 256 µg/mL (≈ 270 µM)
- MIC T. mentagrophytes 18748 [9]: 8 µg/mL (≈ 8.43 µM)
- MIC S. epidermidis 1050 ([10]; strain 1050): 4 µg/mL (≈ 4.21 µM)
- MIC S. epidermidis 1090 ([10]; strain 1090): 4 µg/mL (≈ 4.21 µM)
- MIC E. faecalis 19052 [8]: 64 µg/mL (≈ 67.4 µM)
- MIC P. gingivalis 9-14K-1 ([11]; strain 9-14K-1): 16 µg/mL (≈ 16.9 µM)
- MIC P. gingivalis 381 ([11]; strain 381): 8 µg/mL (≈ 8.43 µM)
- MIC P. gingivalis A7A1-28 ([11]; strain A7A1-28): 16 µg/mL (≈ 16.9 µM)
- MIC P. gingivalis FAY-19M-1 ([11]; strain FAY-19M-1): 32 µg/mL (≈ 33.7 µM)
- MIC P. gingivalis W50 ([11]; strain W50): 16 µg/mL (≈ 16.9 µM)
- MIC S. marcescens 18963 ([12]; strain 18963): > 256 µg/mL
- MIC S. marcescens 23420 ([12]; strain 23420): > 256 µg/mL
- MIC C. difficile P324 [2]: 4,8 μg/ml
- MIC T. rubrum 36262 [13]: 16 µg/mL (≈ 16.9 µM)
- MIC P. mirabilis 23147 ([14]; strain 23147): > 256 µg/mL
- MIC P. mirabilis 24231 ([14]; strain 24231): > 256 µg/mL
- MIC E. faecium 26143 [15]: 8 µg/mL (≈ 8.43 µM)
- MIC L. fermentum 23271 [3]: 1 µg/mL (≈ 1.05 µM)
- MIC B. fragilis 25285 [4]: 8 µg/mL (≈ 8.43 µM)

SMILES: C[C@H](NC(=O)OC(C)(C)C)C(=O)N[C@@H](CCCNC(=N)N)C(=O)N[C@@H](Cc1ccccc1)C(=O)NCCCCCCCCCCCCNC(=O)[C@H](Cc1ccccc1)NC(=O)[C@H](CCCNC(=N)N)NC(=O)[C@H](C)NC(=O)OC(C)(C)C [Compound 16, 1,12-[di-(Boc-alanyl-arginyl-phenylalanyl)]diaminododecane]
- MIC S. aureus 29213 [5]: 2 µg/mL (≈ 1.74 µM)
- MIC E. coli 25922 [6]: 32 µg/mL (≈ 27.8 µM)
- MIC C. albicans 14053 [1]: 64 µg/mL (≈ 55.7 µM)
- MIC P. aeruginosa 27853 [7]: > 256 µg/mL
- MIC C. difficile P324 [2]: 2 µg/mL (≈ 1.74 µM)
- MIC L. fermentum 23271 [3]: 4,8 μg/ml
- MIC B. fragilis 25285 [4]: 2 µg/mL (≈ 1.74 µM)

SMILES: CC(C)(C)OC(=O)NCCCC(=O)N[C@@H](CCCNC(=N)N)C(=O)N[C@@H](Cc1ccccc1)C(=O)NCCCCCCCCCCCCNC(=O)[C@H](Cc1ccccc1)NC(=O)[C@H](CCCNC(=N)N)NC(=O)CCCNC(=O)OC(C)(C)C [Compound 15, 1-12,-[di-[Boc-γ-aminobutyryl-arginyl-phenylalanyl)]diaminododecane]
- MIC S. aureus 29213 [5]: 2 µg/mL (≈ 1.7 µM)
- MIC C. difficile P324 [2]: 2,4 μg/ml
- MIC C. difficile TTU614 [2]: 16,32 μg/ml
- MIC L. fermentum 23271 [3]: 16 µg/mL (≈ 13.6 µM)
- MIC B. fragilis 25285 [4]: 16 µg/mL (≈ 13.6 µM)

SMILES: N=C(N)NCCC[C@H](NC(=O)CCNC(=N)N)C(=O)N[C@@H](Cc1ccccc1)C(=O)NCCCCCCCCCCCCNC(=O)[C@H](Cc1ccccc1)NC(=O)[C@H](CCCNC(=N)N)NC(=O)CCNC(=N)N [Compound 14]
- MIC S. aureus 29213 [5]: 2,4 μg/ml
- MIC E. coli 25922 [6]: 16 µg/mL (≈ 15.5 µM)
- MIC C. albicans 14053 [1]: 64 µg/mL (≈ 61.9 µM)
- MIC P. aeruginosa 27853 [7]: 64 µg/mL (≈ 61.9 µM)
- MIC E. faecalis 19052 [8]: 64 µg/mL (≈ 61.9 µM)
- MIC E. faecium 26143 [15]: 8 µg/mL (≈ 7.74 µM)

SMILES: N=C(N)NCCC[C@H](NC(=O)[C@@H](N)CCCNC(=N)N)C(=O)N[C@@H](Cc1ccccc1)C(=O)NCCCCCCCCCCCCNC(=O)[C@H](Cc1ccccc1)NC(=O)[C@H](CCCNC(=N)N)NC(=O)[C@@H](N)CCCNC(=N)N [Compound 20, 1,12-[di-(arginyl-arginyl-phenylalanyl)]diaminododecane]
- MIC S. aureus 29213 [5]: 4 µg/mL (≈ 3.57 µM)
- MIC E. coli 25922 [6]: 16 µg/mL (≈ 14.3 µM)
- MIC C. albicans 14053 [1]: 64 µg/mL (≈ 57.2 µM)
- MIC P. aeruginosa 27853 [7]: 64 µg/mL (≈ 57.2 µM)
- MIC C. difficile P324 [2]: 8 µg/mL (≈ 7.15 µM)
- MIC L. fermentum 23271 [3]: 2,4 μg/ml
- MIC B. fragilis 25285 [4]: 16 µg/mL (≈ 14.3 µM)

SMILES: N=C(N)NCCC[C@H](NC(=O)CCCN)C(=O)N[C@@H](Cc1ccccc1)C(=O)NCCCCCCCCCCCCNC(=O)[C@H](Cc1ccccc1)NC(=O)[C@H](CCCNC(=N)N)NC(=O)CCCN [Compound 17, 1,12-[di(γ-aminobutyryl-arginyl-phenylalanyl)]diaminododecane]
- MIC S. aureus 29213 [5]: 4,8 μg/ml
- MIC E. coli 25922 [6]: 32 µg/mL (≈ 32.7 µM)
- MIC C. albicans 14053 [1]: 64 µg/mL (≈ 65.5 µM)
- MIC P. aeruginosa 27853 [7]: 64 µg/mL (≈ 65.5 µM)
- MIC M. canis 11621 [16]: 16 µg/mL (≈ 16.4 µM)
- MIC T. mentagrophytes 18748 [9]: 8 µg/mL (≈ 8.19 µM)
- MIC E. faecalis 19052 [8]: 64 µg/mL (≈ 65.5 µM)
- MIC E. faecalis 19290 [8]: 64 µg/mL (≈ 65.5 µM)
- MIC E. faecalis 23296 ([8]; strain 23296): 32 µg/mL (≈ 32.7 µM)
- MIC E. faecalis 29212 ([8]; strain 29212): 16 µg/mL (≈ 16.4 µM)
- MIC C. difficile P324 [2]: 8,16 μg/ml
- MIC T. rubrum 36262 [13]: 32 µg/mL (≈ 32.7 µM)
- MIC E. faecium 26143 [15]: 16 µg/mL (≈ 16.4 µM)
- MIC L. fermentum 23271 [3]: 16,32 μg/ml
- MIC B. fragilis 25285 [4]: 16 µg/mL (≈ 16.4 µM)
- MIC E. floccosum 52062 [17]: 8 µg/mL (≈ 8.19 µM)

SMILES: N=C(N)NCCC[C@H](N)C(=O)N[C@@H](Cc1ccccc1)C(=O)N[C@@H](CC1CCCCC1)C(=O)NCCCCCCCCCCCCNC(=O)[C@H](CC1CCCCC1)NC(=O)[C@H](Cc1ccccc1)NC(=O)[C@@H](N)CCCNC(=N)N [Compound 58, 1,12-[Di-(ArgPheCha)] diaminododecane]
- MIC Staph ([5]; Table VI): 8 µg/mL (≈ 7.18 µM)
- MIC E. coli ([6]; Table VI): 32 µg/mL (≈ 28.7 µM)
- MIC Candida ([1]; Table VI): 128 µg/mL (≈ 115 µM)
- MIC Psuedo ([7]; Table VI): 256 µg/mL (≈ 230 µM)
